PubChem BioAssay AID624330 (Southern Research Specialized Biocontainment Screening …, 2012)
The campaign covered roughly 340,000 compounds. About 2,100 (0.62%) were called active. Inconclusive means that the source gave no clear call. Such entries were picked first, then a sample of the others.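 How the source made its calls: active means first-screen hits whose inhibition reached a set limit at any dose in the follow-up dose series; inconclusive means inhibition above the set first-screen limit but never retested; inactive means the rest.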

Target: Rac GTPase-activating protein 1 (Homo sapiens) (UniProt Q9H0H5)
Test: blockers of MgcRacGAP-driven Rac1 GTP hydrolysis – biochemical, ADP Hunter fluorescence, primary and confirmatory, confirmation (AID 624330);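 further: fluorescence reports GDP produced by GAP-driven GTP hydrolysis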
Conditions: MgcRacGAP-stimulated Rac1 GTP hydrolysis, at 30 µM, active compounds read high, GST-tagged Rac1 F28L mutant substrate

UniProt Q9H0H5, sequence (Q9H0H5 whole entry, looked up): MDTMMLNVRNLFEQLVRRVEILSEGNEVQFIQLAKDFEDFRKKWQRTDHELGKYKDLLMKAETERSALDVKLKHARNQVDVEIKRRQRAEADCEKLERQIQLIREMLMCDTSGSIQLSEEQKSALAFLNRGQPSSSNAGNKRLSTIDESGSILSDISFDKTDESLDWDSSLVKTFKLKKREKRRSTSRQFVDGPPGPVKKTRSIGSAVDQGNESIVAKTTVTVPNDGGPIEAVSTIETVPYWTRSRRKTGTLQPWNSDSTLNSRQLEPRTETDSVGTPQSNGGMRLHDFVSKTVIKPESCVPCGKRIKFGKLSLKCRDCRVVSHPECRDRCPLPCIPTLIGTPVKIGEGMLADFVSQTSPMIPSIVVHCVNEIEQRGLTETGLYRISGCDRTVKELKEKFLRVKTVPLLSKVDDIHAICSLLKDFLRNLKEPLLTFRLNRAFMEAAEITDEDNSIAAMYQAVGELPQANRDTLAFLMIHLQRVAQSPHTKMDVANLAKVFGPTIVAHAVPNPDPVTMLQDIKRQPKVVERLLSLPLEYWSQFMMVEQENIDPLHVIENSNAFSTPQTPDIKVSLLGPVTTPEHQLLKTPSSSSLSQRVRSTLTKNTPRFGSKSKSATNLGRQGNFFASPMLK

| Compound | inhibition |
| --- | --- |
| COc1ccc(C(O)(C(C)C)C(CN2CCOCC2)c2ccc(Cl)cc2)cc1 (centres undefined) | inactive: 3.23% |
| O=C(Nc1ccc(O)cc1)c1ccc2c(c1)C(=O)N(N1C(=O)c3ccccc3C1=O)C2=O | inconclusive: 66.9% |
| COc1ccc(N2C(=O)C(Cl)=C(Oc3cccc(OC)c3)C2=O)cc1 | inconclusive: 84.3% |
| O=C(Nc1ccc(O)cc1)/C(=C\c1cccs1)NC(=O)c1ccccc1 | inconclusive: 89% |
| O=S(=O)(c1ccc(Cl)c(NC(=S)N/N=C/c2c(F)cccc2F)c1)N1CCOCC1 | inactive: 9.48% |
| C(=N\Nc1ccccn1)/c1c[nH]c2ccccc12 | inconclusive: 97.6% |
| CC(=O)Nc1c2c(nn1-c1ccc(Cl)cc1)CSC2 | inactive: 2.25% |
| Cn1c(SCC(=O)Nc2cccc(F)c2)nnc1-c1cc2ccccc2o1 | inactive: 7.89% |
| Nc1cccc2c1C(=O)N(C(=O)/C=C/c1cccc(F)c1)C2=O | inconclusive: 33.1% |
| COc1cc(/C=N/N=C2/C(=O)Nc3ccccc32)ccc1O | inconclusive: 76.2% |
| Cc1ccccc1NC(=O)CN1CCCC1 | inconclusive: 35% |
| CCOC(=O)c1c(-c2ccc(Cl)cc2)csc1NC(=O)CNCc1ccco1 | inconclusive: 33.4% |
| Cc1c(C(=O)COC(C)(C)C)[nH]c2ccccc12 | inactive: 8.87% |
| CC1CCc2c(sc(N)c2C(N)=O)C1 (centres undefined) | inconclusive: 34.8% |
| Oc1cc(O)c2c(c1)OC(c1ccc(O)c(O)c1)C(O)C2 (centres undefined) | inconclusive: 46.6% |
| CCN(CC)c1ccc(S(=O)(=O)N2CCOCC2)cc1NC(=O)CNCc1ccccc1 | inconclusive: 33.6% |
| CCc1cccc(NC(=O)CSc2nnc(Cc3ccc(OC)cc3)c(=O)[nH]2)c1 | inactive: 6.26% |
| CCCSC1=N/C(=C\c2ccc([N+](=O)[O-])o2)C(=O)S1 | inconclusive: 35.4% |
| COC(=O)c1ccc(CCc2cc(O)ccc2O)cc1 | inconclusive: 36.5% |
| COc1ccc(/C=N/NC(=O)CCc2ccccc2)cc1O | inactive: 26.6% |
| CCN(Cc1ccncc1)C(=O)c1cccs1 | inactive: -1.7% |
| Oc1cc(O)cc(/C=C/c2ccc(O)c(O)c2)c1 | inconclusive: 87% |
| O=C(/C=C/c1cccs1)N1CCN(c2ccc(O)cc2)CC1 | inconclusive: 77.4% |

| Compound | inhibition |
| --- | --- |
| CC(C)(O)C(=O)NN(Cc1ccccc1)c1ccccc1 | inactive: 4.09% |
| Cc1ccc(OC(=O)CCS(=O)(=O)c2ccc(C)cc2)cc1 | inconclusive: 34.7% |
| CCOc1ccc(-c2cnc(NCc3cccc4ccccc34)n2CCOC)cc1 | inconclusive: 37% |
| CC1CN(C2CCN(S(=O)(=O)c3ccc4ccccc4c3)CC2)CC(C)O1 (centres undefined) | inconclusive: 35.7% |
| O=C(c1nnsc1S(=O)c1ccc(Cl)cc1)N1CCOCC1 (centres undefined) | inconclusive: 73.4% |
| O=C1CC(Nc2ccc(N3CCOCC3)cc2)C(=O)N1c1ccccc1F (centres undefined) | inconclusive: 42.6% |
| Cc1cc(=O)[nH]c(SCC(=O)c2ccc(O)c(O)c2)n1 | inconclusive: 44.4% |
| CC(C)Cc1ccc(C(C)C(=O)Nc2ccc(O)cc2)cc1 (centres undefined) | inconclusive: 34.2% |
| CCn1c(SCC(=O)Nc2ccc3c(c2)c2ccccc2n3CC)nnc1-c1ccco1 | inconclusive: 39.8% |
| Cn1c(-c2cccc([N+](=O)[O-])c2)cnc1NCc1cccc(F)c1 | inconclusive: 32.7% |
| C#CCOCCOCCOCCNc1nc(N2CCN(C(=O)[C@H](CCCCN)n3cc([C@@H](N)CC(C)C)nn3)CC2)nc(N2CCN(C(=O)[C@H](Cc3cc4ccccc4[nH]3)n3cc([C@@H](N)Cc4ccc(O)cc4)nn3)CC2)n1 | inconclusive: 57.5% |
| Oc1cccc(CCc2ccccn2)c1 | inactive: -0.46% |
| Cn1c2ccccc2c2ccc3c(c21)C(=O)C=CC3=O | inconclusive: 41.8% |
| COc1ccc(NC2CCCN(C(=O)c3c(C)noc3C)C2)cc1 (centres undefined) | inconclusive: 60.8% |
| Cc1ccc(N=c2ssnc2Cl)cc1 | inactive: 9.47% |
| CC(=O)c1ccc(OCCN2CCOCC2)cc1 | inconclusive: 34.7% |
| CCOC(=O)c1[nH]c2cc(OC)c(OC)cc2c1NC(=O)c1nonc1C | inactive: 9.89% |
| O=C(NCCCN1CCCC1=O)c1cccc(S(=O)(=O)N2CCN(c3ccc(F)cc3)CC2)c1 | inactive: 1.69% |
| COc1cc(/C=C2\C(=N)N3N=C(S(C)(=O)=O)SC3=NC2=O)ccc1OC(=O)c1ccco1 | inconclusive: 34.2% |
| Cc1nnc(SCC(=O)Nc2ccc(N(C)C)cc2)n(N)c1=O | inconclusive: 51.3% |
| O=C1N=c2ccc(Br)cc2=C1c1sc(=S)n(NS(=O)(=O)c2ccccc2)c1O | inconclusive: 32.2% |
| O=C(c1ccc(Cn2cc(Br)cn2)cc1)N1N=C(C(F)F)CC1(O)C(F)F (centres undefined) | inactive: 0.1% |
| COC(=O)/C=C/c1ccc(OC(=O)OC)c(OC(=O)OC)c1 | inconclusive: 32.1% |

| Compound | inhibition |
| --- | --- |
| O=C(NNc1ccccc1[N+](=O)[O-])NC1CCCCC1 | inactive: 2.65% |
| CC(NC(=O)Nc1ccc(O)cc1)(C(F)(F)F)C(F)(F)F | inconclusive: 48.1% |
| Oc1ccc(N2CCN(C(c3ccccn3)c3nnnn3C3CCCC3)CC2)cc1 (centres undefined) | inconclusive: 55.3% |
| Cc1ccc(-c2csc(/C(C#N)=C/Nc3ccc4c(c3)OCCO4)n2)cc1 | inactive: 16.1% |
| Cc1c2cc(O)c(=O)cc-2oc2cc(O)c(O)cc12 | inconclusive: 47.7% |
| Oc1ccc(/C=N/n2c(COc3ccccc3)n[nH]c2=S)cc1O | inconclusive: 39.3% |
| Nc1ccc2c(c1)C/C(=C/c1ccco1)C2=O | inconclusive: 32.2% |
| O=C(NCCc1ccc(O)cc1)c1ccc(Cl)cc1 | inconclusive: 46% |
| Oc1c(Br)cc(Br)c(/C=N/n2c(-c3ccccc3)n[nH]c2=S)c1Br | inconclusive: 33.1% |
| COc1ccc(CN2CCN(C(=O)CC(C)C)CC2)c(OC)c1OC | inconclusive: 34.5% |
| C#CCOCCOCCOCCNc1nc(N2CCN(C(=O)CCCCCCCCCCNC(=O)Cn3cc(CCCCCN)nn3)CC2)nc(N2CCN(C(=O)CCCCCCCCCCNC(=O)[C@H](CO)n3cc(CCCSC)nn3)CC2)n1 | inconclusive: 66.6% |
| O=C(O)C1Nc2c(Cl)cc(Cl)cc2C2C=CCC12 (centres undefined) | inconclusive: 58.6% |
| C=CCn1c(SCC(=O)O)nnc1-c1cccc(Cl)c1 | inactive: -7.04% |
| CCn1nnnc1SCC(=O)Nc1ccc(N(C)C)cc1 | inconclusive: 33.9% |
| CCOc1ccccc1N1CCN(CC(=O)Nc2ncc(C)s2)CC1 | inactive: 5.5% |
| O=C(O)c1cccc(N/N=C/c2cn(-c3ccccc3)nc2-c2cccs2)c1 | inactive: 3.09% |
| CCOc1ccc(/C=N/Nc2ccc(C(F)(F)F)cc2[N+](=O)[O-])cc1O | inactive: 13.1% |
| CCN(CCO)c1ccc(NC(=S)Nc2cccc(S(=O)(=O)N(C)C)c2)cc1 | inconclusive: 32.2% |
| CCCc1cc(-c2n[nH]c(C(=O)OCC)c2-c2cscn2)c(O)cc1O | inconclusive: 64.9% |
| C=C1CCC[C@]2(C)C[C@H]3OC(=O)C(CNCCN(CC)CC)[C@H]3CC12 (some centres undefined) | inconclusive: 35.6% |
| COc1cccc(CN2CCN(S(=O)(=O)c3ccc(Cl)s3)CC2)c1 | inactive: -1.96% |
| Cc1cc(=O)[nH]c2ccc(S(=O)(=O)Nc3ccc(O)cc3)cc12 | inconclusive: 78.4% |
| S=c1[nH]nc(-c2ccc(Br)o2)n1Cc1ccccc1 | inconclusive: 32.5% |

| Compound | inhibition |
| --- | --- |
| COc1cc(OC)cc(C(C(=O)NCc2ccccc2)N(Cc2ccco2)C(=O)c2ccno2)c1 (centres undefined) | inactive: 5.98% |
| CCOc1cc(N2CCOCC2)c(OCC)cc1NC(C)C(=O)N1CCC(C)CC1 (centres undefined) | inconclusive: 125% |
| COCCCN(CC(=O)Nc1ccc(N2CCOCC2)cc1)S(=O)(=O)c1ccccc1 | inactive: 5.72% |
| COc1cccc(OC)c1C(=O)N1CCN(Cc2ccccc2C)CC1 | inconclusive: 33.8% |
| O=C(c1ccc(Cl)cc1)N1CCN(c2cccc3[nH]ccc23)CC1 | inconclusive: 84.2% |
| COc1cc(CC(=O)OCc2cccc([N+](=O)[O-])c2)cc(OC)c1OC | inactive: 2.78% |
| CN(C)c1ccc(CCc2ccc(N)cc2)cc1 | inactive: 31.6% |
| CCN(CC(=O)NCc1ccc(F)cc1)C(=O)COc1ccc2ccccc2c1 | inconclusive: 32.6% |
| CCN(CC)c1ccc(Nc2nc(N3CCOCC3)c3ccccc3n2)cc1 | inconclusive: 37.2% |
| O=C(CN1CCN(c2ccc(F)cc2)CC1)Nc1ccccc1C(=O)NCCc1ccccc1 | inactive: 9.18% |
| Cc1cc(C)c2c(=O)n(CC(=O)N3CCC(N4CCCCC4)CC3)sc2n1 | inconclusive: 62.8% |
| O=c1[nH]nc(CNc2cccc(C(F)(F)F)c2)c2ccccc12 | inactive: 7.15% |
| CN(c1ccccc1)S(=O)(=O)c1cccc(NC(=O)CSc2ncn[nH]2)c1 | inactive: 5.76% |
| c1ccc2c(c1)ccc1ccccc12 | inactive: -3.62% |
| COC(=O)c1ccc(=O)c2nc3/c(=C/O)c(O)cc(=O)c3[nH]c12 | inconclusive: 44.5% |
| CCOc1ccc2c(c1)C(=NNC(=O)c1ccccn1)c1cc(OCC)ccc1-2 | inactive: -24.9% |
| CN(C)c1ccc(C=c2c3ccccc3n3c2cc(-c2ccccc2)[n+]3C)cc1 | inconclusive: 87.9% |
| C/C(=N\NC(=O)c1ccc(C)cc1C)c1ccc2c(c1)Nc1ccccc1S2 | inconclusive: 32.6% |
| Cc1c(CCC(=O)NC2CC2)c(=O)oc2c(C)c(O)ccc12 | inconclusive: 45.2% |
| COc1ccc(S(=O)(=O)N2CCN(c3ncccn3)CC2)cc1 | inactive: -2.15% |
